Laboratory results published in PubChem BioAssay AID1508624 (National Center for Advancing Translational Sciences (NCATS), 2021).
About 120 (0.25%) of roughly 48,000 compounds were called active. Not shown: some 4% with an inconclusive outcome. Calls come from the whole dose curve; as a rule, active = well fitted activation curve with a large enough effect; inconclusive = small, poorly fitted or top-dose-only effect, or another doubt; inactive = no such curve, though single readings can be large or run the other way. The list shows a part of the results.

Assay: Primary qHTS for Identification of Small Molecule Activators of Huntingtin-Antisense Promoter Activity; note: nearly all actives have a fitted effect of over 55% in size
Details: HEK293 HTT-AS promoter firefly luciferase reporter, 24 h; series mostly up to 57.5 µM; activity change, positive = activation: at the top concentration
In short: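 Luminescence was read after Dual-Glo reagent and a 10 min room-temperature incubation. Values were normalized to vehicle (0% activity) and zero RLU (-100% activity). Reporter HEK293 cells had been exposed to compounds (up to 57.5 uM final) for 24 h.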

Activity change, positive = activation, inactive:
CCCc1cc(=O)n2[nH]c(NCc3ccc(CC)cc3)nc2n1 4.66%
O=C1c2[nH]nc(-c3ccccc3)c2C(c2ccccc2)N1c1cccc(C(F)(F)F)c1 (stereo not given) -58.1%
O=C1SC(Nc2ccc(Cl)cc2)C(=O)N1Cc1ccccc1 (stereo not given) -18.8%
Cc1c(Cl)cccc1Nc1nc(N)nc(CSc2nc3ccccc3s2)n1 -19.6%
O=C1CS(=O)(=O)C2(C(=O)N(Cc3ccc(F)cc3)c3ccccc32)N1c1cccc(C(F)(F)F)c1 (stereo not given) -27.8%
Cc1ccc2oc(C(=O)Nc3ccc(S(=O)(=O)Nc4onc(C)c4C)cc3)cc(=O)c2c1 3.2% [at 11.5 µM, percent change from vehicle, -100% = no light]
CCOC(=O)c1c(C)[nH]c(C)c1S(=O)(=O)N1CCC(C(=O)N2CCN(c3cc(C)ccc3C)CC2)CC1 -48.5%
CC1CCN(S(=O)(=O)c2ccc3c(c2)N(CC(=O)NCCc2ccc(Cl)cc2)C(=O)CO3)CC1 -33.2%
Cc1ccc(NC(=O)CCCn2c3ccccc3c(=O)c3cc(C)ccc32)c(Br)c1 -31.5%
O=C(CSc1ncc(S(=O)(=O)c2ccc(Cl)cc2)c(=O)[nH]1)Nc1ccc2c(c1)OCCO2 -9.85%
COc1cccc(C(=O)NCC(=O)OCc2cc(=O)n3nc(C)sc3n2)c1 -4.24%
CCCC(=O)Nc1nnc(SCc2cc(=O)c3ccc(C)cc3[nH]2)s1 -52.5%
CCCCNC(=O)C1=CC(c2ccc3c(c2)OCO3)=NS(=O)(=O)N1C -12.5%
CCCCCC(N)=O 4.8%
COc1ccc2c(Sc3ccccc3)c(C(=O)NCc3ccc(OC(C)C)cc3)[nH]c2c1 -5.56%
CN1CCN(c2cccc(Nc3nc4c(-c5ccc(S(C)(=O)=O)cc5)cccn4n3)c2)CC1 -14%
COc1cccc(CNC(=O)c2cc3n(n2)CCCN(Cc2ccc(C)cc2)C3=O)c1OC -14.7%
COc1ccc(-c2nc3ccc(NS(=O)(=O)c4ccccc4)cc3o2)cc1 -8.63%
CCOc1ccc(-n2c(SCC(=O)NCc3ccco3)nc3c([nH]c4ccccc43)c2=O)cc1 -30.7%
Cc1cccc(-c2nnc3n(CCc4ccccc4)c(=O)c4ccccc4n23)c1 0%
Cc1ccc(NC(=O)c2sc(-n3nc(C)c(Cc4ccc(Cl)cc4)c3C)nc2C)cc1 5.34%
Cc1ccc(-n2c3nc(=O)[nH]c(=O)c-3cc3c(Cl)cccc32)cc1 -16.5%
Cc1ccc(C)c(NC(=O)N2CCN(C)c3ncccc32)c1 -27.5%
Cc1ccc(Cn2ccnc2SCC(=O)Nc2ccc3c(c2)OCO3)cc1 -4.96%
Oc1ccc(O)cc1 -22%
CCN(Cc1ccccc1)C(=O)Cn1c(=O)n(-c2ccc(OC)cc2OC)c(=O)c2c(C)c(C)sc21 0.426%
CCOc1ccc(NC(=O)c2c(NC(=O)Cc3ccccc3)sc3c2CCCC3)cc1 -29.1%
COc1ccc(Cl)cc1NC(=O)Cn1c(=O)n(Cc2ccco2)c(=O)c2ccc(C(=O)NC3CCCC3)cc21 -11.8%
CCOc1ccc(CNC(=O)c2ccc(-c3nc(CSc4ccc(C)cc4)c(C)o3)cc2)cc1 -20%
CCCCn1c2ccccc2c2nnc(SCC(=O)Nc3ccc(NC(C)=O)cc3)nc21 -1.03%
Cc1oc2ccc(O)c(CN(C)Cc3ccccc3)c2c1C(=O)Nc1cccc(Cl)c1C -48.3%
COc1cc2nc(N3CCN(C(=O)C4CCCO4)CC3)nc(N)c2cc1OC (stereo not given)
CCc1nc2nc(C)cc(Nc3ccc(Br)cc3F)n2n1 -19.3%
Cc1ccccc1NC(=O)c1c2c(nc3ccccc13)C(=O)N(C1CCCCC1)C2 -3.52%
COc1ccccc1-c1cc(C(F)(F)F)nc(S(=O)(=O)CCCC(=O)Nc2cc(C)ccc2O)n1 5.36%
Cc1ccc2c(=O)c(C(=O)c3ccc(F)cc3)cn(CC(=O)NC3CCCCC3)c2n1 -10.4%
CC(=O)Nc1ccc(S(=O)(=O)Nc2ccc(-c3cn4c(C)csc4n3)cc2)cc1 -39.8%
COC(=O)c1cc(S(=O)(=O)N2CCN(c3cccc(C)c3)C(C)C2)c[nH]1 (stereo not given) -17.4%
COCCNC(=O)CCC(=O)N1Cc2cccc(OC)c2Oc2ncccc21 -6.04%
CCSc1nnc2c(n1)OC(c1ccc(C)cc1)N(C(C)=O)c1ccccc1-2 (stereo not given) -0.327%
COc1ccc(CNC(=O)CCCN2C(=O)CSc3c2c(C)nn3-c2ccccc2)c(OC)c1 -14.2%
Cc1ccc(-c2[nH]c3ccccc3c2SCCNC(=O)c2ccc(S(=O)(=O)N(C)C)cc2)cc1 -40.7%
COc1ccc(Cl)cc1NC(=O)CCS(=O)(=O)c1cccc2nonc12 -19.3%
Cc1ccc(NC(=O)C(=O)NCC(c2cccnc2)N2CCOCC2)cc1Cl (stereo not given) -21.1%
Cc1c(CC(=O)N2CCCCC2)c(=O)oc2c(C)c3occ(C(C)(C)C)c3cc12 -6.77%
CCCCOc1ccc(C(C)NC(=O)c2cccc(Nc3nc4ccccc4n4nnnc34)c2)cc1 (stereo not given) -4.27%
Cc1ccc(CN2CCSc3ccc(C(=O)NCCc4ccccc4)cc32)cc1 18%
COc1ccc(Cl)cc1NC(=O)C1CCN(c2nnc(C)c3c(C)n(-c4ccccc4)nc23)CC1 -0.417%
O=c1n(Cc2cccc(F)c2)c2ccccc2c2nc(-c3ccccc3)nn12 -17.1%
CN(C)C=NC(=O)c1cc2c(n(-c3ccccc3)c1=O)CC(C)(C)CC2=O -20.2%
Oc1ccccc1C=NCc1ccccc1 3.64%
COc1cccc(CSc2nc3n(n2)C(c2cccc(F)c2)C(C(=O)Nc2ccccc2C)=C(C)N3)c1 (stereo not given) 3%
CN(C)c1cc2c(cc1NS(=O)(=O)c1ccccc1)n(C)c(=O)n2C 3.03%
Cc1cccc(N2CCN(C(=O)c3ccc(CS(=O)c4cccc(Cl)c4)o3)CC2)c1C (stereo not given) -49.7%
COc1ccc(CN(C(=O)Nc2cccc(Cl)c2)c2ccccn2)cc1OC -1.82%
COc1ccc(NC(=O)CCCSc2nc(-c3ccco3)cc(C(F)(F)F)n2)c(OC)c1 -15.4%
COc1cccc(OCc2nc3ccccc3n2Cc2ccccc2C)c1 -60.3%
CCOc1ccc(N(CC)C(=O)C2CCN(S(=O)(=O)c3cccc4nonc34)CC2)cc1 -0.291%
COc1cc(NC(=O)Cn2nnc(-c3ccc(C(F)(F)F)cc3)n2)c(C(=O)O)cc1OC -5.05%
COc1ccc(CCC(=O)NC2CC(=O)N(c3cccc(F)c3)C2)cc1 (stereo not given) -2.75%
